# This is one part of the list.
# Assays:
# Assay in all cases: glycan array binding signal (z-score within array); higher = stronger binding
# Conditions in all cases: glycan notation: IUPAC condensed, linker removed
# [1] = biological target: GlcNAc(b1-3)[GlcNAc(b1-6)]Gal(b1-4)GlcNAc
# In short: (§1)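 The binding signal is a Z-score computed within each array and averaged over linkers. Arrays of the same protein sequence at different concentrations or buffers were also averaged together. Data originate from 3228 arrays in the Consortium for Functional Glycomics database, kept only where the protein sequence was available.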
# [2] = biological target: GlcNAc(b1-3)[GlcNAc(b1-6)]GalNAc
# In short: as §1
# [3] = biological target: GlcNAc(b1-4)Gal(b1-4)GlcNAc
# In short: as §1
# [4] = biological target: GlcNAc(b1-4)GlcNAc
# In short: as §1
# [5] = biological target: GlcNAc(b1-4)GlcNAc(b1-4)GlcNAc
# In short: as §1
# [6] = biological target: GlcNAc(b1-4)GlcNAc(b1-4)GlcNAc(b1-4)GlcNAc(b1-4)GlcNAc
# In short: as §1
# [7] = biological target: GlcNAc(b1-4)GlcNAc(b1-4)GlcNAc(b1-4)GlcNAc(b1-4)GlcNAc(b1-4)GlcNAc
# In short: as §1
# [8] = biological target: GlcNAc(b1-4)[GlcNAc(b1-6)]GalNAc
# In short: as §1
# [9] = biological target: GlcNAc(b1-6)Gal(b1-4)GlcNAc
# In short: as §1
# [10] = biological target: GlcNAc(b1-6)GalNAc
# In short: as §1
# [11] = biological target: GlcNAc3Prop(b1-4)GlcNAc
# In short: as §1
# [12] = biological target: GlcNAc6S(b1-3)Gal(b1-4)GlcNAc
# In short: as §1
# [13] = biological target: Kdn(a2-3)Gal(b1-3)GalNAc
# In short: as §1
# [14] = biological target: Kdn(a2-3)Gal(b1-3)GlcNAc
# In short: as §1
# [15] = biological target: Kdn(a2-3)Gal(b1-4)Glc
# In short: as §1
# [16] = biological target: Kdn(a2-3)Gal(b1-4)GlcNAc
# In short: as §1
# [17] = biological target: Kdn(a2-3)Gal(b1-4)[Fuc(a1-3)]GlcNAc
# In short: as §1
# [18] = biological target: Kdn(a2-6)Gal(b1-4)GlcNAc
# In short: as §1
# [19] = biological target: Man(a1-2)Man(a1-2)Man(a1-3)Man
# In short: as §1
# [20] = biological target: Man(a1-2)Man(a1-2)Man(a1-6)[Man(a1-3)]Man
# In short: as §1
# [21] = biological target: Man(a1-2)Man(a1-3)Man
# In short: as §1
# [22] = biological target: Man(a1-2)Man(a1-3)[Man(a1-2)Man(a1-6)]Man
# In short: as §1
# [23] = biological target: Man(a1-2)Man(a1-3)[Man(a1-2)Man(a1-6)]Man(a1-6)[Man(a1-2)Man(a1-2)Man(a1-3)]Man
# In short: as §1
# [24] = biological target: Man(a1-2)Man(a1-3)[Man(a1-2)Man(a1-6)]Man(a1-6)[Man(a1-2)Man(a1-2)Man(a1-3)]Man(b1-4)GlcNAc(b1-4)GlcNAc
# In short: as §1
# [25] = biological target: Man(a1-2)Man(a1-3)[Man(a1-6)]Man(a1-6)[Man(a1-2)Man(a1-3)]Man(b1-4)GlcNAc(b1-4)GlcNAc
# In short: as §1
# [26] = biological target: Man(a1-2)Man(a1-6)[Man(a1-3)]Man(a1-6)[Man(a1-2)Man(a1-2)Man(a1-3)]Man
# In short: as §1
# [27] = biological target: Man(a1-2)Man(a1-6)[Man(a1-3)]Man(a1-6)[Man(a1-2)Man(a1-2)Man(a1-3)]Man(b1-4)GlcNAc(b1-4)GlcNAc
# In short: as §1
# [28] = biological target: Man(a1-3)[Man(a1-6)]Man
# In short: as §1
# [29] = biological target: Man(a1-3)[Man(a1-6)]Man(a1-6)[Man(a1-2)Man(a1-3)]Man(b1-4)GlcNAc(b1-4)GlcNAc
# In short: as §1
# [30] = biological target: Man(a1-3)[Man(a1-6)]Man(a1-6)[Man(a1-3)]Man
# In short: as §1
# [31] = biological target: Man(a1-3)[Man(a1-6)]Man(a1-6)[Man(a1-3)]Man(b1-4)GlcNAc(b1-4)GlcNAc
# In short: as §1
# [32] = biological target: Man(a1-3)[Man(a1-6)]Man(b1-4)GlcNAc(b1-4)GlcNAc
# In short: as §1
# [33] = biological target: Man(a1-6)Man
# In short: as §1
# [34] = biological target: Man(b1-4)GlcNAc
# In short: as §1
# [35] = biological target: Neu5Ac(a2-3)Gal
# In short: as §1
# [36] = biological target: Neu5Ac(a2-3)Gal(b1-3)GalNAc
# In short: as §1
# [37] = biological target: Neu5Ac(a2-3)Gal(b1-3)GalNAc(b1-3)Gal(a1-4)Gal(b1-4)Glc
# In short: as §1
# [38] = biological target: Neu5Ac(a2-3)Gal(b1-3)GalNAc(b1-4)[Neu5Ac(a2-3)]Gal(b1-4)Glc
# In short: as §1
binder,measurement,setting,value
Gal 3 (Canis lupus) (protein) MADSFSLNDALSGSGNPNPQGWPGPWGNQPAGAGGYPGASYPGAYPGQAPPGGYPGQAPPGGYPGQAPPGGYPGQAPPGGYPGQAPPGGYPGQAPPGTYPGPTAPAYPGPTAPGTQPGQPSGPGAYPPPGQPSAPGAYPAAGPFGIPAGPLTVPYDLPLPGGVKPRMLITILGTVRPSANRLALDFKRGNDVAFHFNPRFNEDNKRVIVCNTKLDNIWGKEERQAAFPFESGKPFKIQVLVESDHFKVAVNDAHLLQYNHRMKNLPEISKLGISGDIDLTSASYAMI,glycan array binding signal (z-score),[1],-0.259
same,glycan array binding signal (z-score),[2],-0.251
same,glycan array binding signal (z-score),[3],-0.24
same,glycan array binding signal (z-score),[4],-0.248
same,glycan array binding signal (z-score),[5],-0.252
same,glycan array binding signal (z-score),[6],-0.275
same,glycan array binding signal (z-score),[7],-0.254
same,glycan array binding signal (z-score),[8],-0.262
same,glycan array binding signal (z-score),[9],-0.262
same,glycan array binding signal (z-score),[10],-0.261
same,glycan array binding signal (z-score),[11],-0.246
same,glycan array binding signal (z-score),[12],-0.222
same,glycan array binding signal (z-score),[13],-0.259
same,glycan array binding signal (z-score),[14],-0.149
same,glycan array binding signal (z-score),[15],-0.261
same,glycan array binding signal (z-score),[16],-0.201
same,glycan array binding signal (z-score),[17],-0.248
same,glycan array binding signal (z-score),[18],-0.272
same,glycan array binding signal (z-score),[19],-0.257
same,glycan array binding signal (z-score),[20],-0.267
same,glycan array binding signal (z-score),[21],-0.252
same,glycan array binding signal (z-score),[22],-0.264
same,glycan array binding signal (z-score),[23],-0.273
same,glycan array binding signal (z-score),[24],-0.256
same,glycan array binding signal (z-score),[25],-0.261
same,glycan array binding signal (z-score),[26],-0.262
same,glycan array binding signal (z-score),[27],-0.265
same,glycan array binding signal (z-score),[28],-0.258
same,glycan array binding signal (z-score),[29],-0.261
same,glycan array binding signal (z-score),[30],-0.272
same,glycan array binding signal (z-score),[31],-0.267
same,glycan array binding signal (z-score),[32],-0.266
same,glycan array binding signal (z-score),[33],-0.268
same,glycan array binding signal (z-score),[34],-0.261
same,glycan array binding signal (z-score),[35],-0.261
same,glycan array binding signal (z-score),[36],-0.256
same,glycan array binding signal (z-score),[37],-0.236
same,glycan array binding signal (z-score),[38],-0.238

# Reference: the supplement of paper PMC8728848
